Measured values reported in the RNAGym collection of RNA variant scans (doi:10.7554/elife.90254).
The source gives no read counts; variants with many changes may rest on few reads.

B1: LINE1-mini (parent)
chain: GGCAGAGCUCAACACAGCGUGGCAAAGUGGCUGUGGCUAGACUGCC

Variants of: B1
Assay: self-cleavage, relative activity (ratio to wild type); higher = more cleavage; in vitro, sequencing; the parent is a self-cleaving ribozyme

Row | Variant | self-cleavage
1 | C10A C13U G17A G29C G40C | 0.03
2 | C10A C13U G19U C31U | 0.06
3 | C10A C15A A16C G19A G36U | 0
4 | C10A C15A A41G | 0.04
5 | C10A C15A C18G A24C U34A | 0.02
6 | C10A C15A G17A A26U | 0.04
7 | C10A C15A G19A A39G | 0.01
8 | C10A C15A G33C C45A | 0.01
9 | C10A C15A G35C | 0.01
10 | C10A C15A G35C G36A C42G | 0.01
11 | C10A C15A U20A C46A | 0.01
12 | C10A C15G C31U | 0.03
13 | C10A C15G C46U | 0.02
14 | C10A C15G G19A | 0.03
15 | C10A C15G U28C | 0.01
16 | C10A C15G U34C A39C | 0
17 | C10A C15U A25C G36C U43C | 0.01
18 | C10A C15U A26C G27U C31U | 0
19 | C10A C15U C23A | 0.04
20 | C10A C15U C23G | 0.1
21 | C10A C15U G35C | 0.02
22 | C10A C15U G40A | 0.01
23 | C10A C15U G44C | 0.05
24 | C10A C15U G44U | 0.01

Row | Variant | self-cleavage
25 | C10A C18A A25U C46U | 0.05
26 | C10A C18A C37U G40C G44U C46U | 0
27 | C10A C18A G21C G27U G30A | 0.03
28 | C10A C18A G22U U28C U32A G36U C45U | 0
29 | C10A C18A U20G | 0.04
30 | C10A C18A U38G | 0
31 | C10A C18G C37A | 0.01
32 | C10A C18G G27C C37U | 0.01
33 | C10A C18G G29U | 0.03
34 | C10A C18G U43G | 0
35 | C10A C18U A24G G36C G40C | 0
36 | C10A C18U A24U | 0.01
37 | C10A C18U C23U | 0.06
38 | C10A C18U C42U | 0.05
39 | C10A C18U G19C A39C | 0.03
40 | C10A C18U G21U G22U U32A | 0.03
41 | C10A C18U G22U C46A | 0.09
42 | C10A C18U G30C G33U A39G | 0.02
43 | C10A C18U G30C U38A A39G | 0.05
44 | C10A C18U G36A G40C A41G C45A | 0.01
45 | C10A C23A A25C U32G C46A | 0
46 | C10A C23A A25U G27C | 0
47 | C10A C23A A41U U43A | 0
48 | C10A C23A C37U C42A | 0.01

Row | Variant | self-cleavage
49 | C10A C23A G33C | 0
50 | C10A C23G A26C C31G U38C C42A | 0
51 | C10A C23G C37A | 0
52 | C10A C23G C45U | 0.06
53 | C10A C23G G27C C42U | 0.05
54 | C10A C23G U32G A41U C46G | 0.02
55 | C10A C23U A39C C42G | 0
56 | C10A C31A C37A C42A | 0
57 | C10A C31A C37G A41U | 0
58 | C10A C31A C42G | 0.01
59 | C10A C31A C46G | 0.01
60 | C10A C31A G36U | 0
61 | C10A C31A G40C | 0.02
62 | C10A C31A U32A C37G | 0.01
63 | C10A C31G A39G | 0.03
64 | C10A C31G C37U | 0.01
65 | C10A C31U G33C | 0.05
66 | C10A C31U U32A | 0.04
67 | C10A C31U U38A A39G | 0.03
68 | C10A C37A C46A | 0.05
69 | C10A C37A U38C | 0.01
70 | C10A C37G A39G | 0
71 | C10A C37U U43C C45U | 0
72 | C10A C42A C46A | 0.01

Row | Variant | self-cleavage
73 | C10A C45U C46G | 0.01
74 | C10A G17A A25G G30U C37G G40C G44A | 0.01
75 | C10A G17A C18A | 0.03
76 | C10A G17A C18G U34A C42A | 0.05
77 | C10A G17A C23A | 0.03
78 | C10A G17A C23G C31U C42G | 0.01
79 | C10A G17A C45U | 0.05
80 | C10A G17A G19A G21A | 0.04
81 | C10A G17A G21A G40A U43C | 0.03
82 | C10A G17A G21C G40U | 0.01
83 | C10A G17A U20C C23G G44U | 0.01
84 | C10A G17C A24U G29A | 0.02
85 | C10A G17C C18G C23A A25U U43A | 0.01
86 | C10A G17C C31A G40A | 0.02
87 | C10A G17C C42U | 0.02
88 | C10A G17C C46A | 0.05
89 | C10A G17C G21A G22U | 0.03
90 | C10A G17C G27A C31U G33A C46A | 0.01
91 | C10A G17C G27U | 0.03
92 | C10A G17C G29U U32A U34G G40C C45G | 0
93 | C10A G17C G36U G40A | 0
94 | C10A G17C G44C | 0.05
95 | C10A G17C U28G U32G U38G | 0.01
96 | C10A G17C U34A | 0.02

Row | Variant | self-cleavage
97 | C10A G17U A24U C37G | 0.01
98 | C10A G17U A26U | 0.01
99 | C10A G17U G21U | 0.15
100 | C10A G17U G21U G22U G36U | 0.01
101 | C10A G17U G22U | 0.04
102 | C10A G17U G27U | 0.02
103 | C10A G17U G27U G36U U43C | 0.01
104 | C10A G17U G29A | 0.07
105 | C10A G17U G29U U38G | 0.04
106 | C10A G17U U20A A25C | 0
107 | C10A G17U U20C G29U G30C A41U | 0.02
108 | C10A G17U U20C G30C G40C | 0.08
109 | C10A G17U U32C G40C | 0
110 | C10A G19A A26C G33A | 0.01
111 | C10A G19A C37A | 0.06
112 | C10A G19A C37U G40C | 0
113 | C10A G19A C42G | 0.03
114 | C10A G19A G22C C46A | 0.01
115 | C10A G19A G29A C31A | 0.03
116 | C10A G19A G35U G40C | 0.3
117 | C10A G19A U34A A41C | 0.02
118 | C10A G19A U34G | 0.04
119 | C10A G19A U43A | 0
120 | C10A G19C G27A U34C | 0.01

Row | Variant | self-cleavage
121 | C10A G19C G35C | 0.01
122 | C10A G19C U34C G36C C45U | 0.01
123 | C10A G19U C23U G44U C45U | 0
124 | C10A G19U G27A G33C | 0.01
125 | C10A G19U G29A C42A | 0.01
126 | C10A G19U G30C A39U G44C | 0.04
127 | C10A G19U G35C | 0
128 | C10A G21A A25C C46U | 0.17
129 | C10A G21A C42G | 0.01
130 | C10A G21A G22A U32C C37A G44C | 0
131 | C10A G21A G29U U34C | 0.02
132 | C10A G21A G44U | 0.02
133 | C10A G21A U38G C42U | 0.03
134 | C10A G21C A24C | 0.02
135 | C10A G21C C37A | 0.01
136 | C10A G21C C37U | 0
137 | C10A G21C C46A | 0.02
138 | C10A G21C G27U U32A | 0.02
139 | C10A G21C G33C U38A G40A | 0
140 | C10A G21C U34G | 0.05
141 | C10A G21U A24U G35A | 0.01
142 | C10A G21U A25U G36A | 0.01
143 | C10A G21U A39G | 0.01
144 | C10A G21U G22C G36C | 0.02

Row | Variant | self-cleavage
145 | C10A G21U G33C | 0.02
146 | C10A G21U G36C | 0.01
147 | C10A G21U G36U | 0.02
148 | C10A G21U U28A | 0.04
149 | C10A G21U U28C | 0.05
150 | C10A G21U U28G G29A C31U | 0.03
151 | C10A G22A A24G G35C | 0.02
152 | C10A G22A C23A | 0.03
153 | C10A G22A C45U | 0.03
154 | C10A G22A G27U G44C | 0.02
155 | C10A G22A G29U | 0.02
156 | C10A G22A G36A | 0.01
157 | C10A G22C A26C U32C | 0.04
158 | C10A G22C A26G | 0.01
159 | C10A G22C C23G C31U U32A U38G | 0.02
160 | C10A G22C C37U | 0.01
161 | C10A G22C C42A | 0.05
162 | C10A G22C C46G | 0.05
163 | C10A G22C G27U U43C | 0
164 | C10A G22U A26C G29U G35U G36A C42U | 0
165 | C10A G22U C23A G29U | 0.03
166 | C10A G22U G29C | 0.03
167 | C10A G22U G30U | 0.01
